Measured values as given in patent US12421317B2, “Polynucleotides encoding anti-glucagon-like peptide 1 receptor (GLP1R) antagonist antibodies” (Regeneron Pharmaceuticals, Inc., priority 2020, dated 2025).

Legend:
[1] = target: T1, hGLP1R-MMH (N-terminal region of human GLP1R-MMH) (Homo sapiens, UniProt P43220); assay: SPR (Biacore 4000) binding of captured GLP1R mAbs to hGLP1R-MMH
T1 construct: the N-terminal region of human GLP1R-MMH (hGLP1R-MMH)
Procedure: (§1) The equilibrium dissociation constant (KD) for GLP1R binding to selected GLP1R monoclonal antibodies (mAbs) was determined using a real-time surface plasmon resonance biosensor using a Biacore 4000 instrument. All binding studies were performed in 10 mM HEPES, 150 mM NaCl, 3 mM EDTA, and 0.05% v/v Surfactant Tween-20, pH 7.4 (HBS-ET) running buffer at 25° C. and 37° C. The Biacore CM5 sensor chip surface was first derivatized by amine coupling with human Fc specific mouse mAb to capture different GLP1R mAbs. Different concentrations (100, 25, and 6.25 nM) of the N-terminal region of human GLP1R-MMH (hGLP1R-MMH; SEQ ID NO: 59), human GLP1R expressed with mouse IgG2a Fc (hGLP1R-mFc; SEQ ID NO: 63), an in-line fusion protein of human desA-GLP1 and GLP1R-MMH (hdesA-GLP1_GLP1R-MMH; SEQ ID NO: 62), Macaca fascicularis GLP1R-MMH (mfGLP1R-MMH; SEQ ID NO: 60) or 100 nM mouse GLP1R-MMH (mGLP1R-MMH; SEQ ID NO: 61) prepared in HBS-ET running buffer were injected over the GLP1R mAb captured surface for 150 sec at a flow rate of 30 μL/min and their dissociation in HBS-ET running buffer was monitored for 10 minutes. At the end of each cycle, the GLP1R mAb capture surface was regenerated using a 12 sec injection of 20 mM phosphoric acid.
(§2) The association rate (ka) and dissociation rate (Kd) were determined by fitting the real-time binding sensorgrams to a 1:1 binding model with mass transport limitation using Scrubber 2.0 c curve-fitting software. Binding dissociation equilibrium constant (KD) and dissociative half-life (t½) were calculated from the kinetic rates as: […]

[2] = target: T2, hGLP1R-mFc (human GLP1R expressed with mouse IgG2a Fc) (Homo sapiens, UniProt P43220); assay: SPR (Biacore 4000) binding of captured GLP1R mAbs to hGLP1R-mFc
T2 construct: human GLP1R expressed with mouse IgG2a Fc (hGLP1R-mFc)
T2 sequence (P43220 with tags, fused parts or gaps): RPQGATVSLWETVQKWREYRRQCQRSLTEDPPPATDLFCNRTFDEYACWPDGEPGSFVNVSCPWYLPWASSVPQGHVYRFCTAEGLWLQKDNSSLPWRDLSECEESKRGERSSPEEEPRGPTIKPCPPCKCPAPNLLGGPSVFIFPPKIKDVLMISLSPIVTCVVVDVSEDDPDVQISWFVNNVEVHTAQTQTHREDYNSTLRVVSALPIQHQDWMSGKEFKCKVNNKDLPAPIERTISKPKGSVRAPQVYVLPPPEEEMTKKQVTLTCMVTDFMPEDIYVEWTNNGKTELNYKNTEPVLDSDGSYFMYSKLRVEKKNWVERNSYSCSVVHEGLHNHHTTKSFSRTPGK
Procedure: as §1, §2

[3] = test system: mfGLP1R-MMH (Macaca fascicularis GLP1R-MMH); assay: SPR (Biacore 4000) binding of captured GLP1R mAbs to mfGLP1R-MMH
Procedure: as §1, §2

[4] = target: T3, mGLP1R-MMH (mouse GLP1R-MMH) (Mus musculus, UniProt O35659); assay: SPR (Biacore 4000) binding of captured GLP1R mAbs to mGLP1R-MMH
T3 construct: 100 nM mouse GLP1R-MMH (mGLP1R-MMH)
T3 sequence (O35659 with tags, fused parts or gaps): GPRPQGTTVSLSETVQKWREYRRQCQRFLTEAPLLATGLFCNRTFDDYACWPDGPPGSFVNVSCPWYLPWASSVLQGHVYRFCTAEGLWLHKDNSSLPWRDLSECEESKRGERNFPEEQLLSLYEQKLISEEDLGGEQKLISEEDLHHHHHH
Procedure: as §1, §2

[5] = test system: GLP1R humanized mice; assay: Exendin-4 induced hypoglycemia in GLP1R humanized mice (Example 5); type: in vivo; settings: for Blood glucose levels / Percent differences in blood glucose levels from Group 1: Exendin-4 challenge, antibody 25 mg/kg s.c. on Day 0, mean
Procedure: For the study, 35 mice were randomly divided into one group of fourteen mice and three groups of seven mice. On Day 0, the group of fourteen animals (later divided into Groups 1 and 2) were administered subcutaneously (s.c.) with a mIgG2 isotype control antibody (referred to as Isotype control, dose of 25 mg/kg), whereas the other three groups (n=7/group) were each administered s.c. (dose of 25 mg/kg) with mAb36986 (Group 3), mAb37639 (Group 4), or mAb37645 (Group 5). The next day (Day 1), the isotype control administered fourteen animals were randomly divided into two groups (Group 1 and 2) of seven mice each. At 0 minute on Day 1, animals in Group 1 were administered intraperitoneally (i.p.) with saline, whereas animals in Group 2 were administered i.p. with Exendin-4 (dose of 0.01 mg/kg). At the same time point, animals in Groups 3, 4, and 5 were administered i.p. with Exendin-4 (dose of 0.01 mg/kg). For all animals, blood glucose levels were measured with a handheld glucometer immediately before saline or Exendin-4 administration, and 15, 30, 60, and 120 minutes post administration. All animals remained in their assigned groups until the study completion on Day 67. The Exendin-4 challenge performed on Day 1 was repeated on Days 8, 22, 46, and 67. Mean±SEM of percent differences in blood glucose levels from Group 1 at each time point was calculated for each group and shown in Table 16. Statistical analyses were performed by two-way ANOVA followed by Bonferroni post-hoc tests, comparing Groups 2, 3, 4, and 5 to Group 1.

T1 sequence (P43220 with tags, fused parts or gaps): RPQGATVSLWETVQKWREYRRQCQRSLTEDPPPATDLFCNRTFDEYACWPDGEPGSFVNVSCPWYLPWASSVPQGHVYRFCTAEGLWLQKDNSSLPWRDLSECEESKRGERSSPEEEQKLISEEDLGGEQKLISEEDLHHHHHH

B1: mAb37639: fully human anti-GLP1R antagonist antibody; HCVR/LCVR SEQ ID NOs: 22/30; heavy/light chain 36/38 (antibody)
heavy: EVQLLESGGGVVQPGGSLRLSCVASGFTFSSYAMSWVRQAPGKGLEWVSSISGSGGSTDNADSVKGRFTISRDNSKNTLYLQMNSLRAEDTAVYYCAKDRITIFGVVLNGAFDIWGQGTMVTVSSASTKGPSVFPLAPCSRSTSESTAALGCLVKDYFPEPVTVSWNSGALTSGVHTFPAVLQSSGLYSLSSVVTVPSSSLGTKTYTCNVDHKPSNTKVDKRV[human IgG4 Fc with S228P (EU numbers) not printed]
light: DIQMTQSPSSLSASVGDRVTITCQASQDIRNYLNWYQQKPGKAPKLLIYDASNLETGVPSRFSGSGSGTDFTFTISSLQPEDIATYFCQQYDNLFTFGPGTKVDIKRTVAAPSVFIFPPSDEQLKSGTASVVCLLNNFYPREAKVQWKVDNALQSGNSQESVTEQDSKDSTYSLSSTLTLSKADYEKHKVYACEVTHQGLSSPVTKSFNRGEC
notes: fully human anti-GLP1R antagonist antibody; heavy/light chain 36/38
Question: Which results are given for B1?
Answer: ka ([1]; 25° C.): 393000 M⁻¹ s⁻¹; kd ([1]; 25° C.): 0.000186 s⁻¹; ka ([1]; 37° C.): 668000 M⁻¹ s⁻¹; kd ([1]; 37° C.): 0.000422 s⁻¹; ka ([2]; 25° C.): 65900 M⁻¹ s⁻¹; kd ([2]; 25° C.): 0.000156 s⁻¹; ka ([2]; 37° C.): 101000 M⁻¹ s⁻¹; kd ([2]; 37° C.): 0.000354 s⁻¹; ka ([3]; 25° C.): 137000 M⁻¹ s⁻¹; kd ([3]; 25° C.): 0.000195 s⁻¹; ka ([3]; 37° C.): 215000 M⁻¹ s⁻¹; kd ([3]; 37° C.): 0.000418 s⁻¹; ka ([4]; 25° C.): 269000 M⁻¹ s⁻¹; kd ([4]; 25° C.): 0.00454 s⁻¹; ka ([4]; 37° C.): 435000 M⁻¹ s⁻¹; kd ([4]; 37° C.): 0.00959 s⁻¹; glucose normalizing effects during Exendin-4 challenges ([5]; 25 mg/kg s.c. on Day 0, challenges on Days 1, 8, 22, 46, 67): glucose normalizing effects only on Days 1 and 8; Blood glucose levels ([5]; Day 1, 0 min): 215 mg/dL; Percent differences in blood glucose levels from Group 1 ([5]; Day 1, 0 min): 12%; Blood glucose levels ([5]; Day 1, 15 min): 233 mg/dL; Percent differences in blood glucose levels from Group 1 ([5]; Day 1, 15 min): −9%; Blood glucose levels ([5]; Day 1, 30 min): 222 mg/dL; Percent differences in blood glucose levels from Group 1 ([5]; Day 1, 30 min): −13%; Blood glucose levels ([5]; Day 1, 60 min): 226 mg/dL; Percent differences in blood glucose levels from Group 1 ([5]; Day 1, 60 min): −6%; Blood glucose levels ([5]; Day 1, 120 min): 212 mg/dL; Percent differences in blood glucose levels from Group 1 ([5]; Day 1, 120 min): −7%; Blood glucose levels ([5]; Day 8, 0 min): 214 mg/dL; Percent differences in blood glucose levels from Group 1 ([5]; Day 8, 0 min): 1%; Blood glucose levels ([5]; Day 8, 15 min): 223 mg/dL; Percent differences in blood glucose levels from Group 1 ([5]; Day 8, 15 min): −13%; Blood glucose levels ([5]; Day 8, 30 min): 216 mg/dL; Percent differences in blood glucose levels from Group 1 ([5]; Day 8, 30 min): −12%; Blood glucose levels ([5]; Day 8, 60 min): 221 mg/dL; Percent differences in blood glucose levels from Group 1 ([5]; Day 8, 60 min): −9%; Blood glucose levels ([5]; Day 8, 120 min): 215 mg/dL; Percent differences in blood glucose levels from Group 1 ([5]; Day 8, 120 min): 2%; Blood glucose levels ([5]; Day 22, 0 min): 199 mg/dL; Percent differences in blood glucose levels from Group 1 ([5]; Day 22, 0 min): −5%; Blood glucose levels ([5]; Day 22, 15 min): 216* mg/dL; Percent differences in blood glucose levels from Group 1 ([5]; Day 22, 15 min): −19* %; Blood glucose levels ([5]; Day 22, 30 min): 199** mg/dL; Percent differences in blood glucose levels from Group 1 ([5]; Day 22, 30 min): −21* %; Blood glucose levels ([5]; Day 22, 60 min): 188* mg/dL; Percent differences in blood glucose levels from Group 1 ([5]; Day 22, 60 min): −21* %; Blood glucose levels ([5]; Day 22, 120 min): 203 mg/dL; Percent differences in blood glucose levels from Group 1 ([5]; Day 22, 120 min): −2%; Percent differences in blood glucose levels from Group 1 ([5]; Day 46, 0 min): 1%; Blood glucose levels ([5]; Day 46, 15 min): 184** mg/dL; Percent differences in blood glucose levels from Group 1 ([5]; Day 46, 15 min): −25%; Blood glucose levels ([5]; Day 46, 30 min): 171*** mg/dL; Percent differences in blood glucose levels from Group 1 ([5]; Day 46, 30 min): −32** %; Blood glucose levels ([5]; Day 46, 60 min): 165** mg/dL; Percent differences in blood glucose levels from Group 1 ([5]; Day 46, 60 min): −27* %; Blood glucose levels ([5]; Day 46, 120 min): 199 mg/dL; Percent differences in blood glucose levels from Group 1 ([5]; Day 46, 120 min): 7%; Blood glucose levels ([5]; Day 67, 0 min): 196 mg/dL; Percent differences in blood glucose levels from Group 1 ([5]; Day 67, 0 min): 1%; Blood glucose levels ([5]; Day 67, 15 min): 165**** mg/dL; Percent differences in blood glucose levels from Group 1 ([5]; Day 67, 15 min): −38** %; Blood glucose levels ([5]; Day 67, 30 min): 146**** mg/dL; Percent differences in blood glucose levels from Group 1 ([5]; Day 67, 30 min): −44*** %; Blood glucose levels ([5]; Day 67, 60 min): 149*** mg/dL; Percent differences in blood glucose levels from Group 1 ([5]; Day 67, 60 min): −37** %; Blood glucose levels ([5]; Day 67, 120 min): 186 mg/dL; Percent differences in blood glucose levels from Group 1 ([5]; Day 67, 120 min): −18%

Marks after values point to notes of the source that are not given here.
